Results from the antibiotic and cytotoxicity screens of Wong et al. (2023).
Some of the results follow.

test system: S. aureus RN4220; assay: growth inhibition call (relative growth <= 0.2); details: 50 µM

Growth inhibition call, inactive:
COc1ccccc1S(=O)(=O)N[C@H]1CC[C@@H](CCNC(=O)C2CCOCC2)O[C@@H]1CO
Cc1ccc(S(=O)(=O)Nc2ccc3c(c2)C(=O)N([C@H](C)CO)C[C@@H](C)[C@@H](CN(C)C(=O)CCC(F)(F)F)OCCCC[C@H](C)O3)cc1
COc1ccc(NC(=O)N(C)C[C@@H]2Oc3c(NC(=O)c4cnccn4)cccc3C(=O)N([C@H](C)CO)C[C@@H]2C)cc1
COc1ccc(NC(=O)Nc2ccc3c(c2)C(=O)N([C@H](C)CO)C[C@H](C)[C@H](CN(C)C(=O)NC(C)C)OCCCC[C@H](C)O3)cc1
Cc1noc(C)c1NC(=O)N(C)C[C@@H]1Oc2c(NC(=O)c3ccncc3)cccc2C(=O)N([C@H](C)CO)C[C@@H]1C
c1ccc(-c2nn[nH]n2)cc1
C[C@@H]1CN([C@H](C)CO)C(=O)Cc2cc(NC(=O)CCN3CCOCC3)ccc2O[C@H]1CN(C)Cc1ccc(C(=O)O)cc1
CCc1ccccc1C(=O)N1CCC[C@@H](Cn2cc(C(C)(C)N)nn2)C1
COCC#Cc1ccc2c(c1)O[C@@H](CN(C)S(=O)(=O)c1ccc(OC)cc1)[C@H](C)CN([C@H](C)CO)S2(=O)=O
CNC[C@H]1OCCCC[C@@H](C)Oc2ccc(NS(=O)(=O)c3cn(C)cn3)cc2C(=O)N([C@H](C)CO)C[C@@H]1C
Cc1noc(C)c1NC(=O)Nc1ccc2c(c1)CC(=O)N([C@H](C)CO)C[C@@H](C)[C@H](CN(C)S(C)(=O)=O)O2
